Results: PMC9469500, “Targeting an Initiator Allergen Provides Durable and Expansive Protection against House Dust Mite Allergy” (ACS Pharmacology & Translational Science, 2022)
Where a name gives a salt, the structure may show the parent alone.

System: sensitized rats challenged with purified Der p 1
Experiment: Purified Der p 1 challenge in sensitized rats (BAL cells)
Conditions: i.t. aerosol challenge with 0.01 or 10 µg purified Der p 1

## CC(C)[C@H](NC(=O)[C@H](C)NC(=O)[C@@H](NC(=O)C1CC[N+](C)(C)CC1)C(C)(C)C)C(=O)C(=O)NCc1ccccc1 [Compound 2, 4-{(S)-1-[(S)-1-((S)-1-benzylaminooxalyl-2-methyl-propylcarbamoyl)-ethylcarbamoyl]-2,2-dimethyl-propylcarbamoyl}-1,1-dimethyl-piperidinium formate]
  BAL neutrophil response after Der p 1 challenge: inhibited
  changes in BAL eosinophils after Der p 1 challenge: inhibited
